Measurements published in the supplement of paper PMC3334620.
In all, about 33,000 sequences were measured (“E-score (-0.5 to 0.5)”: median about -0.056, highest 2% from about 0.38 on). The list shows a part of the results.

Target: Stb4 (UniProt P50104)
Assay: PBM E-score (8-mer binding enrichment) (E-score (-0.5 to 0.5)); higher = stronger / more preferred TF binding; most listed sequences are background and not binding sites
Conditions: protein concentration: 200 nM; construct: GST-DNA-binding domain
Experimental: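 Universal 'all 10-mer' protein binding microarrays (Agilent AMADID 015681) probed with GST-tagged S. cerevisiae TFs (full-length or DBD) made by in vitro transcription/translation (PURExpress), about 100-200 nM. Bound TF was detected with fluorescent anti-GST. Each ungapped 8-mer (which stands for itself and its reverse complement) is scored by the PBM enrichment score (E-score), a modified Wilcoxon-Mann-Whitney statistic from -0.5 to +0.5, computed with the Universal PBM Analysis Suite. Scale: above 0.35 generally sequence-specific binding.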

Sequence	PBM E-score
GGAACTAA	0.308
ACCGAGAG	0.342
AACGGACC	0.129
GCCGCTTA	0.206
CCGAAGAG	0.417
GGGCGTGA	0.0344
TATACAAA	-0.0128
GTCGACAA	-0.0559
ACAAGTTC	-0.0154
CCAATGAG	-0.134
AGCTGTCG	-0.0511
AGCGTTAA	-0.162
ACGTGTTA	-0.126
AGATAGCA	-0.0652
AGAAGGAA	0.0573
ATTGTTCA	-0.143
GACTTTAC	0.144
CTAGGCGA	-0.104
ACGGGAAC	0.279
CGATAGTA	0.0339
CTGTTTGC	-0.141
CTACATGA	-0.223
CGATTGAA	0.045
TAGCGCGA	-0.00656
AGGCCACG	0.0562

Sequence	PBM E-score
AATCACTC	-0.218
CATTCTAA	-0.0564
ATCAGAGA	-0.258
ACGCACCA	-0.191
TACTATCA	-0.0463
CATATACC	0.131
GTTTCGCA	-0.131
GGGGCAGA	-0.113
ACCCGCGT	0.188
ACTGAGTG	0.0235
GAAGTGTC	0.181
AGGTTTCA	0.00894
ACTAAGCA	-0.252
CCTGCTGC	-0.0427
AGCCGATA	0.344
GGTCTGAA	-0.0589
CTTGACTC	-0.0427
ACTTACGG	0.201
ATGAGGCC	-0.0823
GCTGTGGA	0.0235
AAATGGCC	0.0344
ACAGACGG	0.0198
GAATCGCC	-0.0885
TTGGTAAA	-0.103
CCCGTGAA	0.0258

Sequence	PBM E-score
AGGCTTCC	0.176
CGGATGTA	0.443
AGGAGGCA	-0.124
TGATCTAA	-0.204
GTAGAAAA	0.0192
AACATCAC	-0.0473
GGAATCGA	0.131
TTACAGAA	-0.212
GTATCACA	-0.0302
AGTCGTGG	-0.252
GAACAAAC	0.0485
ATACACAC	-0.128
CAAAGGGA	-0.311
TGCGTTAA	-0.176
CCGGGCCC	0.303
AGTACCAA	-0.114
AGCACGTC	-0.146
ACGGCGGA	0.236
CACGGTTA	0.27
CAAATTCC	0.261
CCATAGAA	-0.151
AAATGTAT	0.016
CAAGCCGA	0.297
GGTCTTCA	-0.149
AAGCACAG	-0.0795

Sequence	PBM E-score
AACATTAT	0.0108
CAGATGTA	-0.257
GGGGATAA	0.00287
AAAGCAAC	-0.0821
AACAGTCG	0.0503
TCTAGCCA	-0.0836
CCCTTCGC	-0.135
ACTCCGGG	0.303
ACAGTATG	-0.0695
AGTCCACA	-0.167
CACTTCCA	-0.0868
AGCGCCTC	0.0589
ACCCCACT	-0.0225
CATATAAC	-0.0403
CGGGTTCA	0.223
ATCAACGA	-0.0442
TATAATCA	0.0526
CAGGACAC	-0.0421
AAATATAT	0.141
AACAACCG	0.285
CGCAAAAA	0.076
CAAGAATC	0.097
TGCTGACA	-0.221
GCCAAGTA	-0.22
CGCTACTA	0.0818

Sequence	PBM E-score
GCACGAAA	-0.0901
GCGCTGTA	-0.13
ATTCGTGA	-0.239
ACATTGCG	-0.0578
AACACCCA	-0.0859
ATCATATC	0.129
GACAATGA	-0.112
GAGTGCCA	-0.0766
ATAGAGAT	-0.26
GCAGCCGA	0.396
TCGGGTCA	0.427
CGCTATAA	-0.0292
AAGCGTGT	-0.22
AGTTGTTA	-0.169
ATCCGCCG	0.371
AGCCAGTG	-0.089
AACACTCT	-0.0232
CCCTGCGG	0.0663
AAAAGTGG	0.0396
ACAATGTC	0.0466
AGTACTAT	-0.119
CCAAATGC	-0.0702
ATTACTCA	-0.137
ACTATGCC	0.0259
CCCGATGA	0.324

Sequence	PBM E-score
TATGGCGA	-0.194
ATAGAGAA	-0.0133
ACAGGCAC	-0.185
CAGTCAAA	-0.0991
CTAATCGA	-0.105
ACTCTGAA	0.0451
AATACCGA	0.35
CGTGACTA	-0.158
CAATGCAG	-0.155
CTTACAGA	-0.173
AGCGCAGC	-0.0705
AGATAAGA	0.0745
AGTTAACC	0.141
AGGAGCAT	-0.0343
CGAGACGC	0.14
AATACATT	-0.112
CGCATAGA	-0.24
CACTTGAA	-0.0917
AAACGCTT	-0.109
TCTTAACA	-0.223
CCCCCTTA	-0.265
AGCTTGAC	-0.00728
GAATCACA	0.0756
CCCTACTC	0.0985
AGTGACAC	-0.0164

Sequence	PBM E-score
AATCTACA	-0.0631
AGATACCG	0.28
ACGTAGGC	-0.239
GGCGTTAC	-0.00334
ACCTTAGG	-0.115
ACGAAGGG	-0.343
CCGTCACA	0.171
TACTTTCA	0.0654
CTTACATA	-0.119
CAATCGTC	-0.187
AAAGCTCT	-0.00412
AACCTATC	-0.0421
AGCGGAGG	-0.0445
CTTGGCTC	-0.031
ATTGAATG	-0.102
GACCGATC	0.133
AAGGTCCA	-0.0963
GTGTTGAA	-0.185
CATAGGTC	-0.228
GGGCCCCA	-0.13
AGAAGCCC	0.151
CGCAGACG	-0.0467
ATCCTGCA	-0.184
AGTCCTCA	-0.00786
CAAGTACG	-0.234

Sequence	PBM E-score
CGCTTAAC	-0.0476
CAGACGAG	-0.12
CCGCGCAG	0.126
CCGTATCG	0.158
GGGCCACA	-0.0749
ATTCGCGC	-0.0127
CCGTCGTC	0.103
CCCTATAC	-0.154
CCCGGTGC	0.188
ATCGGACA	0.196
ACCCCAAG	-0.022
CGGAAGCA	0.435
ATTGGCGG	0.106
TCCGCAAA	0.221
GCGGCTGA	0.0348
CGGATTAG	0.246
AAGATCTA	-0.154
AACGTCCA	-0.063
GACCTTAC	0.113
CGTGAATA	-0.097
AGTGGTCG	0.057
CCTATACG	-0.294
TAGTTCAA	0.0204
GGAGTCCC	0.063
AACTCACG	-0.054

Sequence	PBM E-score
TAGTGAGA	-0.0195
AAAAAATG	0.117
GTTATAGA	-0.202
CGGCGGTA	0.299
GGGAAGGA	0.0823
CCAACGGC	-0.0203
ATCTAACA	-0.00015
ATGGAGCG	-0.159
ACTCCCCT	-0.00521
CGCCACAA	-0.0226
GATCCTAC	-0.0241
CAAAGTGC	-0.181
GGGGCCGA	0.174
CTGTGGCA	-0.0921
TAGATCCA	-0.148
AAGGTACT	-0.07
ACTATCAC	-0.0552
CGTGATTC	0.114
ACGGGGGC	-0.0265
TCGCCACA	-0.0788
CATAGTAA	-0.149
CCTTTGAA	-0.203
ATCTGGCG	-0.0805
CCTGTTAG	-0.0712
ACTCGTAA	0.0295

Sequence	PBM E-score
CCAACAGC	-0.0537
GAGGCGGA	0.213
AAGTACCC	0.214
CATATATC	-0.0674
AGGTGTAA	-0.175
ATCTCTGG	-0.184
CGCTGGTC	-0.0414
TGGTGACA	-0.15
CCAGACAG	-0.115
ATCGCGAT	-0.122
AATACCCG	0.431
CTGGCAAA	-0.114
ATCTTCGA	-0.171
GTGCGATA	-0.131
GCGTGAAA	-0.015
ACTCCAAT	-0.176
ATGACTGC	-0.129
GAGTGTGC	0.162
TCCTCCAA	-0.181
CTGAACTC	-0.175
ATGACTTG	0.0236
ACTATGTA	-0.199
GCCCACGA	-0.238
AGTGCAAG	-0.153
AGCGAGTC	-0.18

Sequence	PBM E-score
ATGGCCTC	0.0882
AACCGAGC	0.418
CGGCCGAG	0.336
CCCCAAGC	0.144
ACAACGCC	-0.0359
TCAATAGA	-0.268
GAGAATGC	0.0088
CCTAGGGA	0.0122
CACAATTC	-0.0479
GAGCGCCC	0.0527
TACATAAA	-0.216
AGCTATAT	0.0653
CGCTGAAA	-0.0375
CCCTTCCC	0.126
TCAATTCA	-0.11
GCCTCCTA	-0.198
GGGCGAGA	-0.0235
CCGCGAGG	0.179
CTCTTCGA	-0.104
AGTCTCCC	0.00962
AGCGGACG	0.0646
GTACGGTA	0.148
GGCAGGAA	-0.0711
ATCCGAAA	0.48
ACCAAGAC	0.0464

Sequence	PBM E-score
GTAGGGAC	-0.147
GAGGCGGC	0.0844
ACTGGTGC	-0.162
TAGCCTAA	-0.244
CATATGAG	-0.0886
GCGTGCAA	-0.138
CAGGAAGC	-0.0961
AGATGTCC	-0.0583
AGTGCCAC	-0.254
AAAACCGG	0.204
AAGCTGGG	-0.0386
GAGTAAAA	-0.146
ACTAAATG	-0.21
AAAAAACC	0.0386
AGAGCCAA	-0.255
TGGGACCA	-0.326
GCTGGACA	-0.216
CTCCATAA	-0.275
CTAAGACC	-0.00271
AAGTGCCG	0.292
GCTTTCTA	0.0674
AACTAATT	-0.0211
CGTCGTTA	-0.0941
CACACAAG	-0.251
GGCGACCA	-0.209

Sequence	PBM E-score
GGCTGTTA	0.127
GTAGAACA	-0.123
AAAACTGG	-0.0456
ACCTCGCC	-0.0213
TATACATA	-0.197
CGAAGCAC	0.0573
ACAGCACT	-0.207
CAATGTTA	-0.103
CGGGACAC	0.261
CACACATC	-0.103
CCATCTGA	-0.126
CAAGCAAA	-0.222
TTCAAAAA	-0.102
TAAGCTTA	-0.311
TGGAGACA	-0.05
GTCGGACA	0.22
TCAGTTAA	-0.0366
ACTGCATG	-0.195
AATAGCCT	-0.215
ACAGCATG	-0.0696
GCTTTAGA	-0.133
AGGATATA	-0.0497
CCAGTGTA	-0.129
GCGACGCC	0.159
CGGGTGAC	0.252

Sequence	PBM E-score
AACTTCCT	-0.0245
CAGTAGAA	-0.274
CTATTCTA	-0.129
AGAATATG	-0.0614
GCCGTCAC	0.252
CACAAGGA	-0.206
ACTGGGGG	-0.0817
GTTCGAGA	-0.154
ATAAAGCC	-0.107
AATTGCGG	0.0881
AACGCCGC	0.121
CCCTATAG	-0.0754
GTAGTAAC	0.0353
GATCCAAC	0.104
CGTTTACC	0.198
CTTACAAC	-0.234
CTGAGCAG	-0.156
GATAACAC	0.0937
CAAGAATG	0.0219
